The list shows a part of the results. Rule as the data show it: active = 3.2 or more and inactive = the rest. Most of these values are background signal.
The binders below were run against SHP2 C-SH2 domain E139D (assay: enrichment score (SH2-bound / input frequency) (ratio); bacterial display of known human phosphotyrosine sites (pTyr-Var adds point mutants) read by sequencing; higher = stronger binding; tyrosines were phosphorylated by kinases first). Settings: peptide library: pTyr-Var.
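Also: displayed peptides selected on beads carrying the immobilized SH2 domain, with library peptides lacking any tyrosine serving as negative controls.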

Enrichment score, inactive:
CTTIHYFFMCN [TP53_Y234_N235Y_YF] 1.38, CTTIHCNYMCN [TP53_Y234_Y234C] 1.89, CTTIHCNFMCN [TP53_Y234_Y234C_YF] 1.79, CTTIHYNNMCN [TP53_Y234_Y236N] 2.01, PLDGEYFTLQI [TP53_Y327] 1.19, PLSGEYFTLQI [TP53_Y327_D324S] 0.825, PLDEEYFTLQI [TP53_Y327_G325E] 1.18, PLDVEYFTLQI [TP53_Y327_G325V] 0.585, PGDGEYFTLQI [TP53_Y327_L323G] 0.722, PPDGEYFTLQI [TP53_Y327_L323P] 0.547, PLDGEYFTRQI [TP53_Y327_L330R] 0.806, PLDGEHFTLQI [TP53_Y327_Y327H] 0.893, PLDGESFTLQI [TP53_Y327_Y327S] 0.689, AAQNCYKVTNA [TPI1_Y105_G110A] 0.636

Enrichment score, active:
CTTIHYNFMCH [TP53_Y234_N239H_YF] 4.07, CTTIHYNFMCK [TP53_Y234_N239K_YF] 4.66, CITIHYNYMCN [TP53_Y234_T230I] 4.15, CSTIHYNYMCN [TP53_Y234_T230S] 4.14, CTSIHYNYMCN [TP53_Y234_T231S] 3.59

The binders below were run against SHP2 C-SH2 domain wild-type in the same assay as above. Settings: peptide library: pTyr-Var.

Enrichment score, inactive:
CTTIHYFFMCN [TP53_Y234_N235Y_YF] 1.4, CTTIHCNYMCN [TP53_Y234_Y234C] 2.25, CTTIHCNFMCN [TP53_Y234_Y234C_YF] 1.84, CTTIHYNNMCN [TP53_Y234_Y236N] 1.85, PLDGEYFTLQI [TP53_Y327] 1.41, PLSGEYFTLQI [TP53_Y327_D324S] 1.17, PLDEEYFTLQI [TP53_Y327_G325E] 0.895, PLDVEYFTLQI [TP53_Y327_G325V] 0.768, PGDGEYFTLQI [TP53_Y327_L323G] 0.551, PPDGEYFTLQI [TP53_Y327_L323P] 0.578, PLDGEYFTRQI [TP53_Y327_L330R] 0.829, PLDGEHFTLQI [TP53_Y327_Y327H] 1.04, PLDGESFTLQI [TP53_Y327_Y327S] 0.926, AAQNCYKVTNA [TPI1_Y105_G110A] 0.598

Enrichment score, active:
CTTIHYNFMCH [TP53_Y234_N239H_YF] 3.82, CTTIHYNFMCK [TP53_Y234_N239K_YF] 3.8, CITIHYNYMCN [TP53_Y234_T230I] 3.72, CSTIHYNYMCN [TP53_Y234_T230S] 5.74, CTSIHYNYMCN [TP53_Y234_T231S] 4.93

What follows are binders tested against SHP2 N-SH2 domain L43F in the same assay as above. Settings: peptide library: pTyr-Var.

Enrichment score, inactive:
CTTIHYFFMCN [TP53_Y234_N235Y_YF] 1.31, CSTIHYNYMCN [TP53_Y234_T230S] 2.92, CTSIHYNYMCN [TP53_Y234_T231S] 2.59, CTTIHCNYMCN [TP53_Y234_Y234C] 2.13, CTTIHCNFMCN [TP53_Y234_Y234C_YF] 1.82, CTTIHYNNMCN [TP53_Y234_Y236N] 1.75, PLDGEYFTLQI [TP53_Y327] 0.907, PLSGEYFTLQI [TP53_Y327_D324S] 1.23, PLDEEYFTLQI [TP53_Y327_G325E] 0.887, PLDVEYFTLQI [TP53_Y327_G325V] 0.586, PGDGEYFTLQI [TP53_Y327_L323G] 0.425, PPDGEYFTLQI [TP53_Y327_L323P] 0.815, PLDGEYFTRQI [TP53_Y327_L330R] 1.13, PLDGEHFTLQI [TP53_Y327_Y327H] 0.716, PLDGESFTLQI [TP53_Y327_Y327S] 0.761, AAQNCYKVTNA [TPI1_Y105_G110A] 0.554

Enrichment score, active:
CTTIHYNFMCH [TP53_Y234_N239H_YF] 3.71, CTTIHYNFMCK [TP53_Y234_N239K_YF] 3.95, CITIHYNYMCN [TP53_Y234_T230I] 3.75

What follows are binders tested against SHP2 N-SH2 domain T42A in the same assay as above. Settings: peptide library: pTyr-Var.

Enrichment score, inactive:
CTTIHYFFMCN [TP53_Y234_N235Y_YF] 1.24, CTTIHYNFMCH [TP53_Y234_N239H_YF] 3.03, CTTIHYNFMCK [TP53_Y234_N239K_YF] 2.94, CITIHYNYMCN [TP53_Y234_T230I] 2.77, CSTIHYNYMCN [TP53_Y234_T230S] 2.42, CTSIHYNYMCN [TP53_Y234_T231S] 2.46, CTTIHCNYMCN [TP53_Y234_Y234C] 1.91, CTTIHCNFMCN [TP53_Y234_Y234C_YF] 1.53, CTTIHYNNMCN [TP53_Y234_Y236N] 1.95, PLDGEYFTLQI [TP53_Y327] 1.13, PLSGEYFTLQI [TP53_Y327_D324S] 1.01, PLDEEYFTLQI [TP53_Y327_G325E] 0.805, PLDVEYFTLQI [TP53_Y327_G325V] 0.461, PGDGEYFTLQI [TP53_Y327_L323G] 0.404, PPDGEYFTLQI [TP53_Y327_L323P] 0.602, PLDGEYFTRQI [TP53_Y327_L330R] 1.05, PLDGEHFTLQI [TP53_Y327_Y327H] 0.746, PLDGESFTLQI [TP53_Y327_Y327S] 0.723, AAQNCYKVTNA [TPI1_Y105_G110A] 0.571

These binders were tested against SHP2 N-SH2 domain T52S in the same assay as above. Settings: peptide library: pTyr-Var.

Enrichment score, active:
CTTIHYNFMCH [TP53_Y234_N239H_YF] 3.31, CTTIHYNFMCK [TP53_Y234_N239K_YF] 3.88, CITIHYNYMCN [TP53_Y234_T230I] 3.4

Enrichment score, inactive:
CTTIHYFFMCN [TP53_Y234_N235Y_YF] 1.42, CSTIHYNYMCN [TP53_Y234_T230S] 3.02, CTSIHYNYMCN [TP53_Y234_T231S] 2.9, CTTIHCNYMCN [TP53_Y234_Y234C] 1.96, CTTIHCNFMCN [TP53_Y234_Y234C_YF] 1.79, CTTIHYNNMCN [TP53_Y234_Y236N] 1.78, PLDGEYFTLQI [TP53_Y327] 1.19, PLSGEYFTLQI [TP53_Y327_D324S] 1.04, PLDEEYFTLQI [TP53_Y327_G325E] 0.897, PLDVEYFTLQI [TP53_Y327_G325V] 0.537, PGDGEYFTLQI [TP53_Y327_L323G] 0.586, PPDGEYFTLQI [TP53_Y327_L323P] 0.653, PLDGEYFTRQI [TP53_Y327_L330R] 0.848, PLDGEHFTLQI [TP53_Y327_Y327H] 0.635, PLDGESFTLQI [TP53_Y327_Y327S] 0.873, AAQNCYKVTNA [TPI1_Y105_G110A] 0.488

What follows are binders tested against SHP2 N-SH2 domain wild-type in the same assay as above. Settings: peptide library: pTyr-Var.

Enrichment score, active:
CTTIHYNFMCH [TP53_Y234_N239H_YF] 3.54, CTTIHYNFMCK [TP53_Y234_N239K_YF] 3.71, CITIHYNYMCN [TP53_Y234_T230I] 3.77

Enrichment score, inactive:
CTTIHYFFMCN [TP53_Y234_N235Y_YF] 1.47, CSTIHYNYMCN [TP53_Y234_T230S] 2.08, CTSIHYNYMCN [TP53_Y234_T231S] 2.66, CTTIHCNYMCN [TP53_Y234_Y234C] 2.17, CTTIHCNFMCN [TP53_Y234_Y234C_YF] 1.81, CTTIHYNNMCN [TP53_Y234_Y236N] 1.39, PLDGEYFTLQI [TP53_Y327] 1.71, PLSGEYFTLQI [TP53_Y327_D324S] 1.39, PLDEEYFTLQI [TP53_Y327_G325E] 1.25, PLDVEYFTLQI [TP53_Y327_G325V] 0.84, PGDGEYFTLQI [TP53_Y327_L323G] 0.809, PPDGEYFTLQI [TP53_Y327_L323P] 1.01, PLDGEYFTRQI [TP53_Y327_L330R] 1.29, PLDGEHFTLQI [TP53_Y327_Y327H] 0.944, PLDGESFTLQI [TP53_Y327_Y327S] 1.15, AAQNCYKVTNA [TPI1_Y105_G110A] 0.758

Source: the supplement of paper PMC10369915
